Measured values: PMC4336329 (PLoS ONE, 2015)
Out of some 310,000 compounds screened, about 14,000 (4.5%) showed an effect of 50% or more. Effects have a minus sign here. The list shows a part of the results.

biological target: human ether-à-go-go-related gene (hERG) potassium channel (human, UniProt Q12809); assay: primary screen, population patch clamp on CHO cells stably expressing hERG
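Note: peak tail current of the secondary pulse compared with the same well before compound.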

human ether-à-go-go-related gene (hERG) potassium channel, sequence (Q12809 whole entry, looked up): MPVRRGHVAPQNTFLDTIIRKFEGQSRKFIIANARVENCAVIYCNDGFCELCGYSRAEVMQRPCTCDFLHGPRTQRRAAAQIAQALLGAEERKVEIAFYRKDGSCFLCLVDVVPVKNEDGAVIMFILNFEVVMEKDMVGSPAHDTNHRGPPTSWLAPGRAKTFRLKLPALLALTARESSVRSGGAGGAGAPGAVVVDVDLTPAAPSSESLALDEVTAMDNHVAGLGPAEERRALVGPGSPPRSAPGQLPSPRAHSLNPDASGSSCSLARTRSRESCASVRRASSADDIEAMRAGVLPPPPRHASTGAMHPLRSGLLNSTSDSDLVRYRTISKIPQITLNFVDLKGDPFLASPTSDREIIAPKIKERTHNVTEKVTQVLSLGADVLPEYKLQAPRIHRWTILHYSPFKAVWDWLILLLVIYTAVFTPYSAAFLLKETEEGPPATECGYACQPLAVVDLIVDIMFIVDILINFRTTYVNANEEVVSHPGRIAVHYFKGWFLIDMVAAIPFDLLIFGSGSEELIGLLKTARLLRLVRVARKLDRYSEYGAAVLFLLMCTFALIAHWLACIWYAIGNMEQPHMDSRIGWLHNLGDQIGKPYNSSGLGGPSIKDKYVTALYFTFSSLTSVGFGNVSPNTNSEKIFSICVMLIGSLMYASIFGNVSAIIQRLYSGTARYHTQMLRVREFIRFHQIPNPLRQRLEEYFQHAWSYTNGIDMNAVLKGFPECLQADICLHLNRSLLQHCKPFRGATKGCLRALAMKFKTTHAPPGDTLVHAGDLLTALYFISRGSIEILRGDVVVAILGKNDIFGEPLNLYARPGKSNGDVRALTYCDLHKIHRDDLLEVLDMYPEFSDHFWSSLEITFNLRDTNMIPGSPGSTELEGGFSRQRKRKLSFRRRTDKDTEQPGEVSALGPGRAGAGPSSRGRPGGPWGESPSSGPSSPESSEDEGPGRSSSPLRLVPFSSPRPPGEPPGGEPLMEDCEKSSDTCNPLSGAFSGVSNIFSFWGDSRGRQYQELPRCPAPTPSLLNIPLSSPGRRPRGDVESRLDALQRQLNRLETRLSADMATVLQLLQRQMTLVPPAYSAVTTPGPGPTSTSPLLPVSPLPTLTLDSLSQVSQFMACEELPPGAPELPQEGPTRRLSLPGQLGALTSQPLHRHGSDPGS

Row | SMILES | hERG current change (%, negative = inhibition) at 10uM [%]
1 | O=C(CC12CC3CC(CC(Br)(C3)C1)C2)Nc1cccc(S(=O)(=O)NC2=NCCC2)c1 | -4.79
2 | COc1cccc(NCc2cc(=O)oc3cc(C)c(O)cc23)c1 | 0.283
3 | O=C(O)c1c(-c2ccccc2)c(-c2ccccc2)nc2ccccc12 | 15.2
4 | C=CCNC(=O)c1cc(Cl)cc(Cl)c1 | 0.623
5 | COC(=O)c1ccc(N2CCN(C)CC2)c(NC(=O)c2cc3ccccc3o2)c1 | -6.95
6 | COc1ccc(Cl)cc1C(=O)N1CCN(c2ccccn2)CC1 | -3.86
7 | CC(=O)c1cnc2sccn2c1=O | -28
8 | Cc1cccc(N2C(=O)C(O)=C(C(=O)c3cccs3)C2c2cccc(Oc3ccccc3)c2)n1 (stereo not shown) | 2.99
9 | COc1ccc(Nc2cc(C)c3c(O)cccc3n2)cc1 | -23.6
10 | Clc1ccc(SCCOCCN2CCOCC2)cc1.O=C(O)C(=O)O | 1.54
11 | CCCNS(=O)(=O)c1ccc2c(c1)n(C)c(=O)n2C | 17.1
12 | Clc1ccc(N2CCN(Cc3ccccc3Cl)CC2)cc1 | 14.8
13 | O=C(C[n+]1cccc2ccccc21)c1ccccc1.[Br-] | -1.84
14 | CCOC(=O)C1=C(O)C(Nc2nccs2)(C(F)(F)F)N=C1C (stereo not shown) | 3.61
15 | c1ccc(CSc2nnc(-c3c[nH]c4ccccc34)o2)cc1 | 4.23
16 | COc1ccc(C2CC(c3ccc(Br)cc3)=NN2C(=S)Nc2ccccc2)cc1 (stereo not shown) | 12.4
17 | CCOC(=O)C1=C(C)C/C(=N\NC(=O)c2ccccc2O)CC1 | 8.16
18 | O=C(Nc1ccc2[nH]c(=O)[nH]c2c1)c1ccc([N+](=O)[O-])o1 | 4.06
19 | Cc1c(C)c2cc3c(C)coc3cc2oc1=O | 10.5
20 | Cc1ccc(-c2ccc(S(=O)(=O)NCc3ccco3)cc2)cc1 | 35
21 | CCC(=O)Nc1ccc2ccccc2c1 | 1.88
22 | CC1Sc2ccc(S(=O)(=O)CCC(=O)N(C)Cc3ccccc3)cc2NC1=O (stereo not shown) | -0.757

Row | SMILES | hERG current change (%, negative = inhibition) at 10uM [%]
23 | CCOc1ccc(/C=N/NC(=O)c2csc(C)c2C)c(OCC)c1 | 6.43
24 | CCc1ccccc1NC(=O)c1ccc2c(c1)CCN2S(C)(=O)=O | 12.7
25 | O=[N+]([O-])c1cccc(-c2nnc3cccc(Cl)n23)c1 | -0.313
26 | COc1cc(/C=N\n2cnnc2)ccc1OCC(=O)Nc1ccc(C)cc1 | -3.44
27 | O=C(c1cc(-c2cccnc2)nc2ccccc12)N1CCN(S(=O)(=O)c2cccs2)CC1 | -64.3
28 | Cn1nc(C(=O)OCc2ccc(F)cc2)c2ccccc2c1=O | 3.57
29 | CN(C)/C=C(/C#N)C(=O)c1cccc(Oc2ccc(C(C)(C)C)cc2)c1 | -16.2
30 | COc1ccc(S(=O)(=O)N(C)C)cc1NC(=O)COC(=O)c1nc2nccc(C)n2n1 | 9.68
31 | Cc1c(CCC(=O)N[C@@H](CCCNC(N)=O)C(=O)O)c(=O)oc2cc3oc4c(c3cc12)CCCC4 | 16
32 | O=[N+]([O-])c1ccc(N=Nc2c(O)[nH]c3ccc(F)cc23)cc1 | 0.959
33 | COc1ccc(OC)c(NC(=O)N2CCc3ccccc3C2)c1 | -5.69
34 | CCc1cc(-c2ccc3c(c2)COc2c4ccccc4nn2-3)on1 | 1.57
35 | O=C(COc1ccc2c(c1)OCO2)Nc1ccc(Cl)cn1 | -3.44
36 | C[n+]1c2n(c3ccccc31)N=C(c1ccc(Br)cc1)CS2.[Br-] | -69.5
37 | NC(=S)NN=C1c2ccccc2-c2ccccc21 | 18.5
38 | COc1ccc(/C=C2\NC(=S)N(CC3CCCO3)C2=O)c(OC)c1 (stereo not shown) | -3.39
39 | O=C(NCC1CCOCC1)c1ccc(OC2CCN(Cc3ccccn3)CC2)cc1 | 7.86
40 | Cc1ccc(OCCC(=O)OCC(=O)Nc2ccc3c(c2)OCCO3)cc1 | -10.3
41 | COc1ccc(C)cc1S(=O)(=O)N1CCN(c2ccccc2)CC1 | -5.8
42 | CC(C)(CNC(=O)c1cccc(S(=O)(=O)Nc2ccc(Br)cc2)c1)N1CCOCC1 | -41.1
43 | Clc1ccc(C(CCN2CCCC2)Cc2ccccc2)cc1 (stereo not shown) | -62.7
44 | Cc1ccc(CN=C(Nc2ccccc2)NC2CCCCC2)cc1 | -24.5

Row | SMILES | hERG current change (%, negative = inhibition) at 10uM [%]
45 | COc1ccc(OC)c(CCNC(=O)c2cccc(NC(=O)C3=C(C)OCCS3)c2)c1 | 2.32
46 | CCc1cc(C)cc(OCCNC(=O)c2cncc(Br)c2)c1 | -23.5
47 | COCCCNC(=O)Cn1c(=O)n(CCCCCC(=O)NCc2ccc3c(c2)OCO3)c(=O)c2sccc21 | -7.87
48 | COc1cc(/C=N/NC(=O)c2ccc(COc3cc(C)ccc3C(C)C)cc2)cc(OC)c1O | -0.207
49 | COC(=O)C(O)(CC(=O)Nc1ccc(Cl)cc1F)C(F)(F)F (stereo not shown) | 10.2
50 | O=C(Cc1cccc(C(F)(F)F)c1)NCC(=O)Nc1cc(Cl)ccc1Cl | 6.94
51 | Cc1csc(NC(=O)CCCC(=O)O)c1-c1nc2ccccc2s1 | -10.2
52 | COc1ccc2[nH]c(=O)c(CN(CC3CCCO3)C(=S)Nc3ccc(C)cc3)cc2c1 (stereo not shown) | -16.5
53 | O=C1CN(C(=O)c2cc3ccccc3oc2=O)C(c2ccc(F)cc2)c2cc(Br)ccc2N1 (stereo not shown) | -68.6
54 | O=C1NC(=S)N/C1=C\C=C\c1ccccc1 | 5.8
55 | CCCC(=O)NC(=S)Nc1cccc(Cl)c1N1CCCC1 | 16.3
56 | COc1ccc(N2CCN(S(=O)(=O)c3cn(C)cn3)CC2)cc1 | -1.47
57 | CCOc1ccccc1N(CC(=O)NC1CCCC1)C(=O)CCC(=O)Nc1cc(C)on1 | 0.413
58 | Cc1ccc(NC2CCCN(C(=O)c3cccc(-c4ncc[nH]4)c3)C2)cc1C (stereo not shown) | 3.23
59 | O=C1Nc2ccccc2/C1=N\c1sc2c(c1C(=O)Nc1ccccc1)CCCC2 | -18.1
60 | CC1CCN(C(=O)C2CCN(S(=O)(=O)c3ccc(-n4cnnn4)cc3)CC2)CC1 | -13.7
61 | Cc1ccc(S(=O)(=O)Cn2nnnc2CN(Cc2ccco2)Cc2cccs2)cc1 | 7.95
62 | Cc1ccc(-c2nnc(NC(=O)c3ccco3)o2)c(C)c1 | 6.75
63 | CN(C(=O)c1ccccc1OCc1ccc(Cl)cc1)c1ccccc1 | -7.03
64 | CCN(CC(=O)Nc1ccc(N2CCOCC2)cc1)Cc1nc2ccccc2c(=O)[nH]1 | -12.8
65 | C=CCc1ccccc1OCCn1ccnc1 | -8.89
66 | COC(=O)c1sccc1S(=O)(=O)Nc1ccc(S(N)(=O)=O)cc1 | -10.3

Row | SMILES | hERG current change (%, negative = inhibition) at 10uM [%]
67 | N#Cc1ccc(-c2nc3ccccc3nc2-c2ccccc2)cc1C#N | 21.7
68 | COC(=O)[C@@H]1C[C@@]2(Br)c3ccccc3N(S(=O)(=O)c3ccccc3)[C@H]2N1C(=O)OC | -5.99
69 | CN(C)S(=O)(=O)c1cccc(C(=O)NCCOC(=O)c2cc(F)c(F)cc2Cl)c1 | -25.7
70 | COc1ccccc1N(C)S(=O)(=O)c1ccc(C)c(C(=O)Nc2nccs2)c1 | -7.03
71 | Cc1[nH]c(=O)c(C#N)c2c1CCCC2 | -4.65
72 | CCOc1ccc(N2C(=O)CC(NC3CCN(C(=O)c4cccs4)CC3)C2=O)cc1 (stereo not shown) | -24.7
73 | CCc1cc(C(=O)N2CCCC(CCC(=O)N3CCN(c4ccccn4)CC3)C2)no1 (stereo not shown) | -17.4
74 | CCCNC(=O)c1ccc2c(=O)c(O)c(C)[nH]c2c1 | -15.1
75 | COC(=O)c1cc(NC(=O)CN2CCOCC2)cc(C(=O)OC)c1 | 23.6
76 | COc1ccc(-n2c(C)cc(C(=O)NC3CCCCC3)c2C)cc1 | -5.56
77 | CCn1c(CSc2nc(C)cc(C)n2)nnc1SCC(=O)N1CCCc2ccccc21 | -3.53
78 | CNC(=O)Cn1nc(-c2ccc(Cl)cc2)c2ccccc2c1=O | 19.1
79 | Cc1c(CN(C)Cc2cn(C)nc2-c2ccccc2F)[nH]c2ccccc12 | -6.24
80 | COC(=O)c1sccc1NC(=O)CC1C(=O)NCCN1C(=O)Nc1cc(Cl)ccc1OC (stereo not shown) | -12.9
81 | CC1CC(=O)Nc2ccccc2N1S(=O)(=O)c1cccs1 (stereo not shown) | 10.5
82 | COC(=O)CN(c1cccc(OC)c1)S(C)(=O)=O | 10.4
83 | N#C/C(=C\c1cccnc1)C(=O)Nc1ccc(Cl)cc1 | 7.07
84 | Nc1ccc(S(=O)(=O)C(F)(F)F)cc1N | 2.62
85 | O=C(c1ccccc1)c1cccc(NC(=O)c2ccco2)c1 | -48.6
86 | N#Cc1nc(-c2cccs2)oc1NCc1ccco1 | -5.22
87 | Cc1cc(C)c2nc(-c3cccnc3)cc(C(=O)Nc3ccc(S(=O)(=O)Nc4onc(C)c4C)cc3)c2c1 | 22.9
88 | O=C(O)CCCCCCCC(=O)O | 25.5
